According to the supplement of paper PMC7826260:
This is one part of the list. One pool of 16,384 single-stranded DNAs met each Rep nickase domain in vitro (3 µM enzyme, 1 h, 37 °C); shown is the middle of each 90-letter strand. The score is log2 (uncut reads / reads without enzyme); the lower, the more was cut; hits are not called. Because reads are shares of a total, they shift together; values above 0 arise when much of the pool is cut.

These sequences were tested on T1, Rep nickase domain of tomato golden mosaic virus (assay: uncleaved DNA left, log2 of reads against the no-enzyme library (log2 ratio); higher = less cleavage (more negative = more Rep cleavage of the k-mer); sequences stand for … in CTCGTCCG…ACCGGAGA).
T1 sequence (protein, residues 1-124, tag omitted): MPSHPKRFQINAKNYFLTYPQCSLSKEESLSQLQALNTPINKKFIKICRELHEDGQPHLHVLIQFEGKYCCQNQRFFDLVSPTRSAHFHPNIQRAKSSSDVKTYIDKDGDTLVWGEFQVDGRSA
Experimental: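 A pool of 90-nt single-stranded DNAs with seven random bases just before the constant AC of the nick site (name = the seven bases) was cut by 3 µM recombinant His6-SUMO-tagged Rep nickase domain (300 nM DNA, 50 mM HEPES pH 8.0, 50 mM NaCl, 1 mM MnCl2, 1 h, 37 °C, three replicates). Uncut DNA was amplified and sequenced.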

| Sequence | uncleaved DNA left (log2) |
| --- | --- |
| TCCTTTA | -0.0885 |
| CACCCAC | -0.255 |
| GGGGTAC | 0.0375 |
| ATCGCCG | 0.0169 |
| CGAACAG | -0.093 |
| CTGTTTT | -0.178 |
| GGGCAGC | -0.0425 |
| GCATTGA | -0.0433 |
| ACACCCT | -0.0814 |
| TCAACAT | 0.0172 |
| GAGAAGC | 0.00326 |
| TAGCGAT | 0.128 |
| TACAGCG | -0.128 |
| TAATAAA | -0.19 |
| AAAGTGC | 0.0511 |
| CTGGGAC | 0.0366 |
| CTAGACC | 0.00183 |
| GGAAGCT | 0.0383 |
| GCAGCGC | -0.0595 |
| GGTGTAG | 0.152 |

| Sequence | uncleaved DNA left (log2) |
| --- | --- |
| AAGGGCT | 0.104 |
| CGTTTAC | 0.0921 |
| GGCAGAG | 0.0442 |
| CCACGCG | 0.0262 |
| GTGAACA | 0.0918 |
| TAGCGAA | 0.0221 |
| TGGCGAG | -0.123 |
| AGTTTCG | -0.0881 |
| TGCACTG | -0.0379 |
| TCGGGTG | 0.0451 |
| TTTACGT | -0.0547 |
| ATTAGAC | 0.0364 |
| GTGGCTT | 0.0175 |
| TAAAAGT | -2.45 |
| GCCCTTT | -0.174 |
| AACTAAA | 0.0685 |
| TCGATAA | -0.0416 |
| TTAAATG | 0.0529 |
| CGGAAGG | 0.044 |
| GAATATC | -0.475 |
